# Assay results taken from PubChem BioAssay AID1508624 (National Center for Advancing Translational Sciences (NCATS), 2021).
# Hit rate of the full screen: of about 48,000 compounds, about 120 (0.25%) were called active. Not shown: some 4% with an inconclusive outcome. Calls come from the whole dose curve; as a rule, active = well fitted activation curve with a large enough effect; inconclusive = small, poorly fitted or top-dose-only effect, or another doubt; inactive = no such curve, though single readings can be large or run the other way. The list shows a part of the results.
# Test: Primary qHTS for Identification of Small Molecule Activators of Huntingtin-Antisense Promoter Activity; note: nearly all actives have a fitted effect of over 55% in size
# Details: HEK293 HTT-AS promoter firefly luciferase reporter, 24 h; series mostly up to 57.5 µM; activity change, positive = activation: at the top concentration
# Outline: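 HEK293 Fluc reporter, 2,500 cells/well, 24 h pre-culture; cpds up to 57.5 uM final, 24 h 37 degrees C; Dual-Glo, 10 min RT; normalized vehicle = 0%, zero RLU = -100%.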
row,SMILES,"activity change, positive = activation"
1,CC(C)C(=O)OCc1cc(=O)n2nc(C3CCCCC3)sc2n1,inactive: 11.6%
2,OC[C@H]1O[C@@H](Oc2ccc(O)cc2)[C@H](O)[C@@H](O)[C@H]1O,inactive: -9.96%
3,COCCNc1ncnc2c1c(-c1ccccc1)cn2-c1cccc(Cl)c1,inactive: -11.6%
4,CCc1ccc(NCc2cc3cc4c(cc3n(CC(=O)Nc3ccc(F)cc3)c2=O)OCCO4)cc1,inactive: -16.1%
5,Cc1ccc(NC(=O)CSc2nnc(N)s2)c(C)c1,inactive: -1.52%
6,COc1ccc(CNC(=O)C2CCN(S(=O)(=O)c3cccc4nonc34)CC2)cc1OC,inactive: -7.15%
7,Oc1c(C(c2ccccc2)N2CCN(c3ccccc3)CC2)sc2nc(-c3ccco3)nn12 (stereo unspecified),inactive: -8.52%
8,O=C(NCCc1ccccc1)C(=O)Nc1cccc(Br)c1,inactive: 19.1%
9,Cn1c(CCNC(=O)c2ccco2)nc2cc(NC(=O)COc3ccc(Cl)cc3)ccc21,inactive: -12.8%
10,CO/N=C(\C(=O)O)c1csc(NC(=O)CCl)n1,inactive: 2.87%
11,O=C(CSc1nc(=O)[nH]c2c1CCC2)NCc1ccccc1,inactive: -6.7%
12,C=CC1=C(C(=O)O)N2C(=O)[C@@H](NC(=O)C(=NO)c3csc(N)n3)[C@H]2SC1,inactive: -6.15%
13,Cc1ccc(C(=O)COC(=O)CCC(=O)Nc2ccc(Oc3ccccc3)cc2)cc1C,inactive: -7.66%
14,CCc1ccc(C2c3c(oc4ccc(C)cc4c3=O)C(=O)N2c2nc(C)c(C)s2)cc1 (stereo unspecified),inactive: -5.43%
15,CCOc1cc(C2c3c(-c4ccccc4O)n[nH]c3C(=O)N2CCc2ccccc2)ccc1O (stereo unspecified),inactive: -34.7%
16,COc1ccc(-c2cc(C(F)(F)F)nc(SCCC(=O)Nc3c(C)cccc3C)n2)cc1,inactive: -8.28%
17,COc1cccc(-c2ccc3c(N)c(C(=O)Nc4ccc(C)c(F)c4)sc3n2)c1,inactive: -11.7%
18,COc1cc(NC(=O)Cn2cc(S(=O)(=O)c3ccccc3)c(=O)c3ccccc32)cc(OC)c1,inactive: 1.99%
19,Cc1ccc(OCC(=O)Nc2ccc(C(=O)OCc3cc(=O)n4c(C)csc4n3)cc2)cc1,inactive: -15.4%
20,COc1ccc(-c2onc(C)c2C)cc1S(=O)(=O)NC1CCC(C)CC1 (stereo unspecified),inactive: -33.1%
21,O=C(NCC12CC3CC(CC(C3)C1)C2)c1cc2nc(-c3ccc(F)cc3)cc(C(F)(F)F)n2n1,inactive: -2.7%

row,SMILES,"activity change, positive = activation"
1,O=C(Nc1ccc(F)cc1F)c1ccc(-n2cnnc2)cc1,"inactive: -3.99% [at 11.5 µM, percent change from vehicle, -100% = no light]"
2,Cc1cc(-n2c(C)nc3ccccc3c2=O)ccc1NC(=O)c1cccc([N+](=O)[O-])c1,inactive: -1.61%
3,Cc1cccc(NC(=O)CSc2cc(C)c3ccccc3n2)c1,inactive: 1.71%
4,CCc1ccccc1NC(=O)Cc1c(C(=O)O)[nH]c2ccc(Cl)cc12,inactive: 0.23%
5,Cc1ccc(Cn2c(CNC(=O)c3ccccc3Br)nc3cccnc32)cc1,inactive: -21.2%
6,COc1ccc(N2CCN(C(=O)Nc3cccc(C(F)(F)F)c3)CC2)cc1,inactive: -22.3%
7,CC(C)CNC(=O)C1=CC(c2ccc3c(c2)OCO3)=NS(=O)(=O)N1C,inactive: -13.6%
8,Cc1ccc(-n2c(=O)c3oc4ccccc4c3n(CC(=O)Nc3ccccc3)c2=O)cc1C,inactive: -25.8%
9,CCn1c(CN2CCOCC2)nc2cc(NC(=O)c3cc(OC)c(OC)c(OC)c3)ccc21,inactive: -9.57%
10,CC(=O)c1ccc(NC(=O)C2CCC(CNS(=O)(=O)c3ccc4c(c3)CCCC(=O)N4)CC2)cc1 (stereo unspecified),inactive: -0.985%
11,NCCCC(O)(P(=O)(O)O)P(=O)(O)O,inactive
12,CSc1nn(Cc2ccc(Br)cc2)c(N(C(C)=O)C(C)=O)c1S(=O)(=O)c1ccccc1,inactive: -39.1%
13,CC1CCN(C(=O)Cn2ncc3c4ccccc4n(Cc4ccc(Cl)cc4)c3c2=O)CC1,inactive: -12.4%
14,COc1ccc(-c2cc(C(=O)NCc3ccccc3)c3c(-c4ccccc4)[nH]nc3n2)cc1,inactive: -5.87%
15,COc1ccccc1N1CCN(C(=O)Cc2c(C(=O)O)c(C)cn2C)CC1,inactive: -14%
16,CCc1ccccc1NC(=O)C1CCCN(c2nnc(-n3c(C)ccc3C)s2)C1 (stereo unspecified),inactive: -12.5%
17,CCCCSCCCNC(=O)C1CCC(CNS(=O)(=O)c2ccccc2)CC1 (stereo unspecified),inactive: -34.8%
18,COc1ccc(-n2c(SCc3ccccc3F)nc3c([nH]c4ccccc43)c2=O)cc1,inactive: -27.9%
19,CCOc1ccc(NC(=O)c2ccc(F)c(S(=O)(=O)NCc3ccc4c(c3)OCO4)c2)cc1,inactive: -37%
20,CNC[C@H](O)[C@@H](O)[C@H](O)[C@H](O)CO,inactive: -8.71%
21,O=C(NCCCc1nc2ccccc2n1Cc1ccc(Cl)cc1)c1ccco1,inactive: -34.7%

row,SMILES,"activity change, positive = activation"
1,O=C(Cn1cc(S(=O)(=O)Cc2ccc(F)cc2)c2ccccc21)NCc1ccccc1Cl,inactive: -16.4%
2,Cc1ccccc1CSc1nnc2[nH]c(=O)cc(C)n12,inactive: 2.55%
3,Cc1oc2ncn(CC(C)C)c(=O)c2c1C(=O)NCCCN(Cc1ccccc1)C(C)C,inactive: -21.1%
4,CCOc1ccc(NC(=O)CSc2nnc(-c3ccc(C)cc3)c(-c3ccc(C)cc3)n2)cc1,inactive: -14.5%
5,O=C(NC1CC(=O)N(c2ccc(Cl)cc2)C1)c1ccc(S(=O)(=O)N2CCCC2)cc1 (stereo unspecified),inactive: -30.4%
6,COc1ccc(CCNC(=O)CS(=O)Cc2nc(-c3ccc(C)cc3)oc2C)c(OC)c1 (stereo unspecified),inactive: -19.7%
7,COc1ccc(CCNC(=O)C(=O)NCC(c2ccco2)S(=O)(=O)c2ccccc2)cc1OC (stereo unspecified),inactive: -11.6%
8,O=C(Cn1c(=O)nc(-c2ccccc2)c2ccccc21)NCCCc1ccccc1,inactive: -7.81%
9,CCc1cccc(C)c1NC(=O)CSc1nnc(N)s1,inactive: -5.87%
10,CCOc1ccccc1NS(=O)(=O)c1cnc(N)nc1,inactive: -8.09%
11,Cc1ccccc1N1CCN(S(=O)(=O)c2nnc(NC(=O)c3ccc(Cl)cc3)s2)CC1,inactive: -28.6%
12,Nc1ccc(S(=O)(=O)Nc2cnc3ccccc3n2)cc1,inactive: 3.23%
13,CCCC12CN3CC(C)(CN(C1)C3c1cn(C)c3ccccc13)C2=O (stereo unspecified),inactive: -3.26%
14,CCSc1ncc(Cl)c(C(=O)N2CCN(c3ccc(OC)cc3)CC2)n1,inactive: -26.5%
15,O=C1C(CCS(=O)c2ccccc2)C(=O)N(c2ccccc2)N1c1ccccc1 (stereo unspecified),inactive: -6.93%
16,O=c1[nH]c(=O)n([C@H]2C[C@@H](O)[C@@H](CO)O2)cc1C=CBr,inactive: -8.95%
17,C=Cc1ccc(Cn2c(=O)n(-c3cccc(C)c3)c(=O)c3c2c2cc(C)ccc2n3C)cc1,inactive: -35.5%
18,O=C(Nc1ccc2c(c1)N(C1CCCC1)C(=O)c1ccccc1S2)c1ccc(F)cc1,inactive: -39.5%
19,CCN(CC)CCCNC(=O)c1ccc2nc(CCc3ccccc3)oc2c1,inactive: 8.86%
